Results published in PubChem BioAssay AID504845 (National Center for Advancing Translational Sciences (NCATS), 2011).
Out of some 390,000 compounds screened, about 150 (0.038%) were called active. The shares of active, inactive and inconclusive entries below differ from those in the screen. Calls come from the whole dose curve; as a rule, active = well fitted inhibition curve with a large enough effect; inconclusive = small, poorly fitted or top-dose-only effect; inactive = no such curve, though single readings can be large or run the other way. A potency beside an inconclusive call is a rough fit, not a confirmed value.
% is set by controls: 0 for no effect and ±100 for the full control effect; potency is the fitted concentration of half-maximal effect; tags give direction and shape of the fitted curve.
Note: nearly all actives have a fitted effect of over 75% in size.

What follows are compounds tested against Regulator of G-protein signaling 4 (Homo sapiens) (UniProt P49798) (assay: Inhibitors of Regulator of G Protein Signaling (RGS) 4: qHTS). Settings: Transcreener GDP fluorescence polarization, RGS4-accelerated GTP hydrolysis; series mostly up to 114 µM; activity change, negative = inhibition: at the top concentration.
Chain of UniProt P49798 (P49798 whole entry, looked up): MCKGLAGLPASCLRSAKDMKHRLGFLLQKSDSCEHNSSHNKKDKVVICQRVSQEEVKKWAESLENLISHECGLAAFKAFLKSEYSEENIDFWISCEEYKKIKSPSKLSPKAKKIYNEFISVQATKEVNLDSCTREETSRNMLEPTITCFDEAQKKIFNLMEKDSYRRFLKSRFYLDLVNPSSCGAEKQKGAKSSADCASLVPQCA
Procedure, shortened: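 MLSMR compounds (23 nl, pin-transferred) preincubated 10 min at room temperature with a 500nM (2x) first reagent, then RGS4 at 900nM (2x) plus Transcreener GDP mix added; fluorescence polarization (620/688 nm) read before and after 90 min at 30 °C.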
For `Cc1cc(CNC(=O)[C@]2(C(F)(F)F)C[C@H](CCC3CCCCC3)CCCO2)nn1C`, the “activity change, negative = inhibition” value was inactive: 16.4%.
`O=C(/C=C/c1cc(Br)ccc1F)Nc1cccnc1` was tested, and the “activity change, negative = inhibition” value was inactive: -15.9%.
`Cc1ccccc1N=Nc1ccc(O)c2ncccc12` was tested, and the “activity change, negative = inhibition” value was inactive: 7.72%.
For `COc1ccc(-c2nnc(OCc3nc4ccccc4n3C)c3ccccc23)cc1`, the Potency was inconclusive: 44.7 µM [inhibitor, partial curve, poor fit].
With `O=C(O)CC(Cn1[nH]nnc1=S)c1ccccc1` (centres undefined) the Potency was inconclusive: 89.1 µM [inhibitor, single point].
In the case of `COc1ccc(/C=N/Nc2nc(C(=O)O)cs2)cc1`, the Potency is reported as inconclusive: 11.2 µM [inhibitor, full curve, poor fit].
With `O=C(CSc1nnc(-c2cccc(Cl)c2)o1)Nc1ccc2c(c1)OCCO2` the “activity change, negative = inhibition” value was inactive: 12.8%.
In the case of `O=C(CSCc1ccc(F)cc1)N1CCc2c([nH]c3ccccc23)C1c1ccccc1` (centres undefined), the “activity change, negative = inhibition” value is reported as inactive: 11.8%.
In the case of `COc1ccc(-c2ccc(/C=C3/C(=N)N4C=CSC4=NC3=O)o2)c([N+](=O)[O-])c1`, the Potency is reported as inconclusive: 79.4 µM [inhibitor, partial curve, poor fit].
For `CCC(C)(c1nnnn1-c1c(C)cccc1C)N(N=O)c1ccccc1Cl` (centres undefined), the “activity change, negative = inhibition” value was inactive: 0.756%.
With `CC(C)C(C(=O)Nc1ccccc1)N1C(=O)c2ccccc2C1=O` (centres undefined) the Potency was inconclusive: 44.7 µM [inhibitor, partial curve, poor fit].
With `O=[N+]([O-])c1cc(S(=O)(=O)Oc2ccccc2)ccc1Cl` the Potency was inconclusive: 56.2 µM [inhibitor, partial curve, poor fit].
For `COc1ccccc1NC(=O)C(C)OC(=O)Cc1n[nH]c(=O)c2ccccc12` (centres undefined), the Potency was inconclusive: 89.1 µM [inhibitor, single point].
`COc1ccnc(CSC(N)=Nc2ccccc2OC)c1` was tested, and the Potency was inconclusive: 56.2 µM [inhibitor, partial curve, poor fit].
With `COc1ccc(N2CCN(C(c3cc(OC)ccc3OC)c3nnnn3Cc3ccco3)CC2)cc1` (centres undefined) the Potency was inconclusive: 70.8 µM [inhibitor, single point].
For `COC(=O)C1=CN(C(C)c2ccccc2)C=C(C(=O)OC)C1c1cc(OC)c(OC)c(OC)c1` (centres undefined), the “activity change, negative = inhibition” value was inactive: -12.3% [at 56.9 µM].
For `c1coc(-c2nnc(-c3ccco3)nn2)c1`, the Potency was inconclusive: 28.2 µM [inhibitor, full curve, poor fit].
In the case of `CC1=NNC(=O)/C1=C\c1cn(-c2ccccc2)nc1-c1cccs1`, the Potency is reported as inconclusive: 44.7 µM [inhibitor, partial curve, poor fit].
In the case of `Cc1cc(C)c(S(=O)(=O)N2CCN(C(=O)c3c(C)nn(-c4ccccc4)c3Cl)CC2)c(C)c1`, the Potency is reported as inconclusive: 89.1 µM [inhibitor, single point].
In the case of `COC(=O)c1c(-c2ccccc2)csc1NC(=O)C1CC=CCC1C(=O)O` (centres undefined), the Potency is reported as inconclusive: 79.4 µM [inhibitor, partial curve, poor fit].
For `Cn1nnnc1Sc1ncnc2scc(-c3ccccc3C(F)(F)F)c12`, the Potency was inconclusive: 79.4 µM [inhibitor, partial curve, poor fit].
`COc1ccc(C(C)=O)cc1CSc1nc2cc(Cl)ccc2o1` was tested, and the Potency was inconclusive: 50.1 µM [inhibitor, partial curve, poor fit].
For `COc1cccc(C2NC(=S)NC(C)=C2C(=O)c2ccccc2)c1OC` (centres undefined), the Potency was inconclusive: 100 µM [inhibitor, partial curve, poor fit].
In the case of `COC(=O)Cn1cc(/C=C/c2cc[n+](C)cc2)c2ccccc21`, the Potency is reported as inconclusive: 100 µM [inhibitor, single point].
With `CC(C)NC(=O)Cn1c(SCC(=O)N2CCCCCC2)nc2ccccc21` the “activity change, negative = inhibition” value was inactive: 14.6%.
For `Cc1ccc(C)c(C(=O)CSc2n[nH]c(C)n2)c1`, the Potency was inconclusive: 56.2 µM [inhibitor, partial curve, poor fit].
`O=C(COc1cccnc1[N+](=O)[O-])Nc1cccc2ccccc12` was tested, and the Potency was inconclusive: 100 µM [inhibitor, partial curve, poor fit].
`COc1cccc(OC)c1C(=O)NC(=S)Nc1ccc2c(c1)OCCO2` was tested, and the Potency was inconclusive: 44.7 µM [inhibitor, partial curve, poor fit].
`CC1C=CC=CC=CC=CC=CC=CC=CC(OC2OC(C)C(O)C(N)C2O)CC2OC(O)(CC(O)CC(O)C(O)CCC(O)CC(O)CC(=O)OC(C)C(C)C1O)CC(O)C2C(=O)O` (centres undefined) was tested, and the Potency was inconclusive: 89.1 µM [inhibitor, single point].
For `NC(=S)c1cc2cc(Cl)ccc2oc1=O`, the “activity change, negative = inhibition” value was inactive: -53.2%.
In the case of `CCN(CC)CCOCCOC(=O)C1(c2ccccc2)CCCC1`, the Potency is reported as inconclusive: 1.5 µM [inhibitor, full curve, poor fit].
In the case of `C=CCN1C(=O)/C(=c2\sc3nc(=O)c(Cc4ccccc4)nn3c2=O)c2ccccc21`, the Potency is reported as inconclusive: 79.4 µM [inhibitor, partial curve, poor fit].
`C#CCOCCOCCOCCNc1nc(N2CCN(C(=O)[C@H](CCCCN)n3cc([C@@H](N)C(C)CC)nn3)CC2)nc(N2CCN(C(=O)[C@H](Cc3cc4ccccc4[nH]3)n3cc([C@@H](N)C(C)CC)nn3)CC2)n1` (some centres undefined) was tested, and the Potency was inconclusive: 56.2 µM [inhibitor, partial curve, poor fit].
With `COc1ccc(-c2csc(NC(=O)CSc3n[nH]c(N)n3)n2)cc1` the Potency was inconclusive: 100 µM [inhibitor, single point].
In the case of `COc1ccc(-c2nnc(SCC(=O)NNC(=O)Cc3ccccc3)n2C)cc1OC`, the Potency is reported as inconclusive: 28.2 µM [inhibitor, full curve, poor fit].
For `CCCC(c1nnnn1CCOC)N1CCN(c2nc3ccccc3s2)CC1` (centres undefined), the Potency was inconclusive: 17.8 µM [inhibitor, full curve, poor fit].
For `O=C(CN1C(=O)CC(c2ccco2)Sc2ccccc21)Nc1ccc(OC(F)(F)F)cc1` (centres undefined), the “activity change, negative = inhibition” value was inactive: 2.24%.
`CC(=O)Nc1ccc2cc3ccc(NC(C)=O)cc3nc2c1` was tested, and the Potency was inconclusive: 56.2 µM [inhibitor, partial curve, poor fit].
`Cc1cc(O)c(/C=N/Nc2ccccc2Cl)c(=O)o1` was tested, and the Potency was inconclusive: 89.1 µM [inhibitor, single point].
